According to the supplement of paper PMC9588766:
Structures can show the parent of a compound that is named as a salt. In all, about 1,900 compounds were measured (“cell viability of compound + 1 nM pemigatinib relative to pemigatinib-only (DMSO) wells”: median about 0.95, lowest 2% from about 0.22 on). This is one part of the list.

system: PDC-DUC18828; test: cell viability of compound + 1 nM pemigatinib relative to pemigatinib-only (DMSO) wells (fraction); PDC-DUC18828 is a patient-derived cholangiocarcinoma cell line; higher = less growth inhibition; settings: first compound 1 µM; pemigatinib concentration 1 nM; 72 h
Description: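 Selleck Bioactive library screen in the patient-derived FGFR2 fusion-positive ICC cell line PDC-DUC18828 (500 cells/well). Each compound was tested at 1 uM with 1 nM pemigatinib, in triplicate, for 72 h. Viability was read by CellTiter-Glo and normalised to plate DMSO controls. Value is the paper's averaged normalised viability.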

`C[C@@H]1O[C@@H](O[C@H]2[C@H](Oc3cc(O)c(C(=O)CCc4ccc(O)cc4)c(O)c3)O[C@H](CO)[C@@H](O)[C@@H]2O)[C@H](O)[C@H](O)[C@H]1O` [Naringin Dihydrochalcone] + CCN1C(=O)N(c2c(F)c(OC)cc(OC)c2F)Cc2cnc3[nH]c(CN4CCOCC4)cc3c21 [pemigatinib] was tested. Which cell viability did it give?
Its cell viability is 0.925.

For `CCCCNC(=O)NS(=O)(=O)c1ccc(C)cc1` [Tolbutamide] + CCN1C(=O)N(c2c(F)c(OC)cc(OC)c2F)Cc2cnc3[nH]c(CN4CCOCC4)cc3c21 [pemigatinib], which cell viability is on record?
The cell viability was 0.926.

`CN(C)Cc1cccc(N/C(=C2\C(=O)Nc3cc(C(N)=O)ccc32)c2ccccc2)c1` + CCN1C(=O)N(c2c(F)c(OC)cc(OC)c2F)Cc2cnc3[nH]c(CN4CCOCC4)cc3c21 [pemigatinib] was tested. Which cell viability did it give?
The cell viability was 1.

How did the cell viability turn out when `CCN1CC(CCN2CCOCC2)C(c2ccccc2)(c2ccccc2)C1=O` (stereo not given) [Doxapram HCl] + CCN1C(=O)N(c2c(F)c(OC)cc(OC)c2F)Cc2cnc3[nH]c(CN4CCOCC4)cc3c21 [pemigatinib] was run?
The cell viability was 0.985.

For `CCC(=O)O[C@]1(C(=O)CCl)[C@@H](C)C[C@H]2[C@@H]3C[C@H](F)C4=CC(=O)C=C[C@]4(C)[C@@]3(F)[C@@H](O)C[C@@]21C` [Halobetasol Propionate] + CCN1C(=O)N(c2c(F)c(OC)cc(OC)c2F)Cc2cnc3[nH]c(CN4CCOCC4)cc3c21 [pemigatinib], which cell viability is on record?
Its cell viability is 0.784.

`C[C@@H](CN1CC(=O)NC(=O)C1)N1CC(=O)NC(=O)C1` [Dexrazoxane HCl (ICRF-187, ADR-529)] + CCN1C(=O)N(c2c(F)c(OC)cc(OC)c2F)Cc2cnc3[nH]c(CN4CCOCC4)cc3c21 [pemigatinib] was tested. Which cell viability did it give?
The cell viability was 1.01.

For `Cc1nc2n(c(=O)c1CCN1CCC(c3noc4cc(F)ccc34)CC1)CCCC2` [Risperidone] + CCN1C(=O)N(c2c(F)c(OC)cc(OC)c2F)Cc2cnc3[nH]c(CN4CCOCC4)cc3c21 [pemigatinib], which cell viability is on record?
The cell viability was 1.07.

`CNCCC(Oc1ccc(C(F)(F)F)cc1)c1ccccc1` (stereo not given) [Fluoxetine HCl] + CCN1C(=O)N(c2c(F)c(OC)cc(OC)c2F)Cc2cnc3[nH]c(CN4CCOCC4)cc3c21 [pemigatinib] was tested. Which cell viability did it give?
The cell viability was 0.981.

For `Cn1nccc1Nc1nccc(-c2ccn([C@H](CO)c3ccc(Cl)c(F)c3)c(=O)c2)n1` + CCN1C(=O)N(c2c(F)c(OC)cc(OC)c2F)Cc2cnc3[nH]c(CN4CCOCC4)cc3c21 [pemigatinib], which cell viability is on record?
The cell viability was 0.886.

With `CC(=O)OCC(=O)[C@@]12N=C(C)O[C@@H]1C[C@H]1[C@@H]3CCC4=CC(=O)C=C[C@]4(C)[C@H]3[C@@H](O)C[C@@]12C` [Deflazacort] + CCN1C(=O)N(c2c(F)c(OC)cc(OC)c2F)Cc2cnc3[nH]c(CN4CCOCC4)cc3c21 [pemigatinib] as the molecule, how does the cell viability read?
Its cell viability is 0.896.
